Experimental findings from PubChem BioAssay AID463173 (ICCB-Longwood Screening Facility, Harvard Medical School, 2010) are described below.

In all, about 52,000 compounds went through this assay and about 1,700 (3.3%) were called active. Cut-off read from the data, not from the text of the source: active = survival mostly below about 52% (no sharp cut-off); inactive = mostly above about 56%. The list shows a part of the results.

The assay concerns Wild type. Put plainly: S. aureus survival, RN4220 and DeltatarO strains – OD600, teichoic acid synthesis inhibitors, primary screen (AID 463173). The following applies: S. aureus RN4220 wild type/DeltatarO growth, OD600, 18 h, stronger effect = lower value, screened at 18.75 µg/mL (by protocol).
Consider `O=C(Nc1cccnc1Cl)c1cc(-c2ccc(Cl)cc2)on1`, for which the survival is inactive: 83%. `COc1cccc(COC(=O)c2ccc(-c3nnn(Cc4ccccc4)n3)cc2)c1`: the survival was inactive: 118%.

With `CC1CCN(S(=O)(=O)c2cc(C(=O)NCc3ccc(F)cc3)n(C)c2)CC1`, the survival was inactive: 66%. Regarding `CCc1ccc(NC(=O)Cn2nnc(C(=O)NCc3ccco3)c2N)cc1`, the survival is inactive: 94%. As to `Cc1ccccc1C(=O)Nc1nnc(SCc2cc(=O)c3c(C)ccc(C)c3[nH]2)s1`, the survival was inactive: 135%. Under `COc1ccc(CN(C(=O)Nc2ccc(C)c(F)c2)C2CCN(C(C)=O)CC2)cc1` stands inactive: 69%; under `CC(C)c1ccc(C(=O)Nc2cccc3cccnc23)cc1`, active: -3%. Under `O=C1C(c2ccc(F)cc2)N(CCc2ccccc2)C(=O)CN1C1CCCCC1` (centres undefined) stands inactive: 105%; under `CNC(=O)c1cc2n(n1)CCCN(Cc1ccc(F)cc1)C2=O`, inactive: 45%. On to `CC(C)(C)C(=O)NC1CCN(CC(=O)N2CCCCCC2)CC1`, for which the survival was inactive: 119%. In the case of `CSc1ccc(CCNC(=O)c2cc3n(n2)CCCN(Cc2ccc(C)cc2)C3=O)cc1` it was inactive: 66%. For `CC1(C)OC(=O)C(=Cc2ccc(-c3ccc(S(N)(=O)=O)cc3)o2)C(=O)O1`, the survival was inactive: 108%. Take `CCOc1ccc(CCNS(=O)(=O)c2c(C)nc3sc(C)cn3c2=O)cc1OCC`: the survival was inactive: 93%. In the case of `CC(=O)c1ccc(NC(=O)CCc2c(C)nn(-c3ccc4nncn4n3)c2C)cc1` it was inactive: 119%. In the case of `CC(C)n1c(=S)[nH]c2c1c(=O)[nH]c(=O)n2C`, the survival is inactive: 94%.

For `Cc1ccc(NC(=O)CCS(=O)(=O)c2ccc3nc(C)sc3c2)cc1`, the survival was inactive: 84%. With `CCC1CN(C(=O)N2CCC(C(=O)NCCOC)CC2)c2ccccc2O1` (centres undefined), the survival was inactive: 85%. In the case of `CC(C)c1ccc(NS(=O)(=O)c2ccc3[nH]c(=O)ccc3c2)cc1`, the survival is inactive: 89%. As for `COC(=O)c1ccc(Cn2nc(-c3ccc(C)c(C)c3)ccc2=O)cc1`, the survival was inactive: 99%.

With `CCc1ccc(NC(=O)C2CCCN(S(=O)(=O)c3c(C)[nH]c(=O)[nH]c3=O)C2)cc1` (centres undefined), the survival was inactive: 84%.

Take `CCOC(=O)Cc1nnc2c(Nc3ccccc3OC)nc3nonc3n12`: the survival is inactive: 120%. `CCSc1nnc(-c2ccc(S(=O)(=O)N3CCOCC3)cc2)n1C`: the survival is inactive: 107%. Regarding `O=C(Nc1noc2ccccc12)c1cccc(F)c1`, the survival was inactive: 102%. As for `CC(C)c1ccc(NC(=O)C2CCCN(S(=O)(=O)c3cccc4nonc34)C2)cc1` (centres undefined), the survival is inactive: 94%.

As for `O=C(CCS(=O)(=O)c1cc2c3c(c1)CCN3C(=O)CC2)NCc1ccc(F)cc1`, the survival is inactive: 77%. With `COCCc1nn2c(=O)cc(COC(=O)COc3ccccc3C)nc2s1`, the survival is inactive: 80%. For the compound `COc1ccc(Cl)cc1Nc1ncnc2c1nc1n2CCCC1`, the survival is inactive: 63%. Turning to `CCC(=O)Nc1ccc2nc(SCC(=O)N3CCc4ccccc43)sc2c1`, the survival was inactive: 88%. In the case of `CCOC(=O)c1ccccc1NC1(c2ccc(OC)cc2)C(=O)c2ccccc2C1=O` it was inactive: 64%. In the case of `Cc1cc(C)c(NC(=O)CSc2nnc3[nH]c(=O)cc(C)n23)c(C)c1`, the survival is inactive: 92%. Regarding `CCNc1nc(NC(C)C)nc(NC(N)NOC)n1` (centres undefined), the survival was inactive: 103%. Turning to `O=c1c2ccccc2n2c(-c3ccc(F)c(F)c3)nnc2n1CCc1ccccc1`, the survival is inactive: 88%. Take `COC(=O)c1ccc(C2c3c(oc4cc(C)c(C)cc4c3=O)C(=O)N2c2ccccn2)cc1` (centres undefined): the survival is inactive: 66%. `C/C(=N\OCCN1CCCCC1)C1COc2ccccc2O1` (centres undefined): the survival is inactive: 96%. Consider `CCOC(=O)c1c(S(=O)(=O)N2CCCC(C(=O)Nc3ccc(C)cc3C)C2)c(C)n(CC)c1C` (centres undefined), for which the survival was inactive: 78%. Consider `CCOC(=O)C1CCN(C(=O)CSc2c3c(nc4ccc(Cl)cc24)CCCC3)CC1`, for which the survival is inactive: 56%. `CC(=O)Nc1ccc(C(=O)CSc2nnc3cc(C)c4ccccc4n23)cc1`: the survival is inactive: 88%. For `CCOc1ccc(S(=O)(=O)Nc2ccc3c(c2)c(C(C)=O)c(C)n3S(=O)(=O)c2ccc(OCC)cc2)cc1`, the survival was inactive: 95%. Under `Cc1cc(C)c(NC(=O)Cn2c(=O)n(CCC(=O)NCc3ccc4c(c3)OCO4)c(=O)c3ccccc32)c(C)c1` stands inactive: 93%; under `O=C(NCc1ccc(Cl)cc1)C(=O)NCC(c1ccco1)S(=O)(=O)c1cccs1` (centres undefined), inactive: 76%; under `Cc1ccc(CNC(=O)c2ccc(-c3nc(CN4CCc5ccccc54)c(C)o3)cc2)cc1`, inactive: 72%. Under `CCCCNC(=O)c1ccc2c(=O)n(-c3ccccc3)c(=O)[nH]c2c1` stands inactive: 66%; under `COc1ccc(-c2cc(C(=O)NCC(=O)O)c(C)o2)cc1OC`, inactive: 100%; under `COc1ccc(CCC(=O)NC2CC(=O)N(c3ccc(C)c(C)c3)C2)cc1` (centres undefined), inactive: 74%.

As for `Cc1ccc(NC(=O)c2sc3nc(-c4ccc(F)cc4)cn3c2C)c(C)c1`, the survival is inactive: 71%.

In the case of `CCOc1ccc2[nH]c(=O)c(CN(C(=O)Nc3ccccc3)C3CC3)cc2c1`, the survival was inactive: 117%.

As to `CCc1ccccc1Nc1sc(C(=O)c2ccccc2)c(N)c1S(=O)(=O)c1ccccc1`, the survival was inactive: 127%.

On to `CN(C)C(=O)c1ccc(S(=O)(=O)NCc2ccc(Cl)cc2)s1`, for which the survival is inactive: 123%. With `CCCCN(CC)C(=O)CSc1nc2c(sc3ccccc32)c(=O)n1CCc1ccccc1`, the survival is inactive: 123%. For the compound `CCN(CCCNC(=O)Cn1ncc2c([nH]c3ccccc32)c1=O)c1cccc(C)c1`, the survival is inactive: 70%. Turning to `COC(=O)c1scc(-c2ccc(C)cc2)c1S(=O)(=O)N1CCN(c2cccc(Cl)c2)CC1`, the survival is inactive: 67%. Regarding `CCc1ccccc1NC(=O)Cn1c(=O)n(-c2ccc(C)cc2)c(=O)c2cc(OC)c(OC)cc21`, the survival is inactive: 90%.

For `CC(=O)N1CCc2c(sc3c2c(=O)n(-c2ccccc2C)c(=O)n3CC(=O)Nc2ccccc2)C1`, the survival is inactive: 69%.

Consider `Cn1c(=O)sc2cc(NS(=O)(=O)c3ccc(C(C)(C)C)cc3)ccc21`, for which the survival was inactive: 73%. For `Cc1ccc(S(=O)(=O)c2nc(-c3cccs3)oc2N2CCC(C)CC2)cc1`, the survival is active: -10%. Turning to `Cc1c(C(=O)Nc2c(F)cccc2F)sc2ncn(Cc3ccccc3F)c(=O)c12`, the survival was inactive: 71%. As for `COc1ccc(C(=O)NCc2cn3ccc(C)cc3n2)cc1`, the survival is inactive: 86%. Consider `CN(Cc1ccccc1)c1nc2c(S(=O)(=O)c3cccc(Cl)c3)nnn2c2ccsc12`, for which the survival is inactive: 88%. Take `CCCCNC(=O)CSc1nc2cc3c(cc2c(=O)n1CCCC(=O)NCc1ccc(OC)cc1)OCO3`: the survival is inactive: 55%.

On to `CC(C)CC(=O)NC1CC(=O)N(c2ccc3c(c2)OCCO3)C1` (centres undefined), for which the survival is inactive: 113%. Consider `Cc1ccc2c(c1)N(C(=O)N1CCC(C(=O)Nc3cccc(F)c3)CC1)CCO2`, for which the survival is inactive: 70%. With `O=S(=O)(NCCc1csc2nc(-c3ccc(Cl)cc3)nn12)c1cccs1`, the survival was inactive: 72%.

With `COC(=O)c1ccccc1NC(=O)NCc1ccc2c(c1)CCN2C(=O)c1ccccc1`, the survival was inactive: 73%.

For the compound `O=C1CN(C(=O)c2ccc(S(=O)(=O)N3CCCC3)cc2)C(c2ccc(F)cc2)c2cc(Br)ccc2N1` (centres undefined), the survival is inactive: 152%.

As to `COc1cccc(C(=O)NC2CCCC2)c1`, the survival is inactive: 103%. Consider `CCC1CN(S(=O)(=O)c2cc(-c3cc(C)no3)ccc2OC)c2cc(Cl)ccc2O1` (centres undefined), for which the survival is inactive: 83%. Regarding `COc1ccccc1Nc1cc(C(=O)NCCCN(C)C2CCCCC2)c2ccccc2n1`, the survival was inactive: 108%.

Consider `COc1cc(Nc2nc3c(S(=O)(=O)c4ccccc4)nnn3c3ccc(Cl)cc23)cc(OC)c1`, for which the survival is inactive: 83%.

For `O=c1c2oc3ccccc3c2n(Cc2ccccc2Cl)c(=O)n1Cc1ccc2c(c1)OCO2`, the survival was inactive: 94%. In the case of `CCc1ccccc1NC(=O)CN(c1cc(C(F)(F)F)ccc1Cl)S(=O)(=O)c1ccccc1`, the survival was inactive: 68%.

With `CCOC(=O)c1ccc2c(c1)N(Cc1cc(C)ccc1C)C(=O)c1ccccc1S2(=O)=O`, the survival is inactive: 80%.

With `Cc1cc(C)cc(NC(=O)[C@H]2O[C@@H]3OC(C)(C)O[C@@H]3[C@H]3OC(C)(C)O[C@H]32)c1`, the survival was inactive: 102%. Under `Cc1ccc2c(c1)N(C(=O)CCC(=O)NCc1ccccc1F)CC(C)O2` (centres undefined) stands inactive: 115%. For the compound `O=C(COc1ccc(Cl)cc1)OCc1cc(=O)n2nc(C3CCCCC3)sc2n1`, the survival is inactive: 92%. As for `Cc1cc(C)c2nc(N3CCCN(C(=O)c4ccco4)CC3)c(C#N)cc2c1`, the survival is inactive: 123%. Under `Cc1ccccc1C(=O)N1CCC(c2nc(-c3ccc(S(=O)(=O)N4CCCC4)cc3)no2)CC1` stands inactive: 108%; under `CCc1ccc(NC(=O)C2CCN(c3ncccn3)CC2)cc1`, inactive: 100%; under `CC(C)C(=O)c1cn(CC(=O)NCc2cccs2)c2ccccc12`, inactive: 109%. Take `Clc1cccc(Nc2ncnc3c2nc2n3CCCCC2)c1`: the survival is active: -1%. For `O=C(Nc1ccccc1Cl)N1CCc2ccccc2C1`, the survival was inactive: 87%. With `Cc1ccsc1CN(Cc1ccco1)c1cnc(S(C)(=O)=O)nc1C(=O)Nc1ccc(Cl)cc1`, the survival is inactive: 82%. Consider `Cn1c(=O)oc2cc(S(=O)(=O)CCC(=O)NCc3ccc(Cl)cc3)ccc21`, for which the survival is inactive: 74%. Turning to `CCCC(O)=NS(=O)(=O)c1ccc(N=NN(C)C)cc1`, the survival is inactive: 121%. As to `CC1CCN(C(=O)CN2CC(C)Sc3ccccc32)CC1` (centres undefined), the survival is inactive: 71%. Regarding `CCOCCn1ccc2c(OCC(=O)Nc3cc(C)cc(C)c3)cccc2c1=O`, the survival was inactive: 88%. Turning to `COc1ccc(-c2cn3nc(SCC(=O)Nc4cccc(C)c4C)ccc3n2)cc1`, the survival was inactive: 99%. For the compound `COc1ccc(Nc2nc3ccccc3n3c(N)nnc23)cc1`, the survival is inactive: 76%. In the case of `Cc1cccc(C(=O)Nc2ccc(OCc3cc(=O)n4ccc(C)cc4n3)cc2)c1`, the survival was inactive: 55%. Under `Cc1ccc(NS(=O)(=O)c2ccc(-n3cccn3)cc2)c(Br)c1` stands inactive: 75%.
